Experimental data as given in paper PMC4071339.
Results are given in words; binding and its absence hold for the method and conditions named. In cells and extracts the contact can be indirect. Some results given as binding are weak or reduced against the parent protein; the word gives no strength.

Amino acid sequences for entries named in this document (tags omitted). A change or cut given only in a name is not applied to a line headed by its entry. Chains listed by the source or under a name are the forms on record and can include a tag or linker. Residues count along the entry.
UniProt P26450: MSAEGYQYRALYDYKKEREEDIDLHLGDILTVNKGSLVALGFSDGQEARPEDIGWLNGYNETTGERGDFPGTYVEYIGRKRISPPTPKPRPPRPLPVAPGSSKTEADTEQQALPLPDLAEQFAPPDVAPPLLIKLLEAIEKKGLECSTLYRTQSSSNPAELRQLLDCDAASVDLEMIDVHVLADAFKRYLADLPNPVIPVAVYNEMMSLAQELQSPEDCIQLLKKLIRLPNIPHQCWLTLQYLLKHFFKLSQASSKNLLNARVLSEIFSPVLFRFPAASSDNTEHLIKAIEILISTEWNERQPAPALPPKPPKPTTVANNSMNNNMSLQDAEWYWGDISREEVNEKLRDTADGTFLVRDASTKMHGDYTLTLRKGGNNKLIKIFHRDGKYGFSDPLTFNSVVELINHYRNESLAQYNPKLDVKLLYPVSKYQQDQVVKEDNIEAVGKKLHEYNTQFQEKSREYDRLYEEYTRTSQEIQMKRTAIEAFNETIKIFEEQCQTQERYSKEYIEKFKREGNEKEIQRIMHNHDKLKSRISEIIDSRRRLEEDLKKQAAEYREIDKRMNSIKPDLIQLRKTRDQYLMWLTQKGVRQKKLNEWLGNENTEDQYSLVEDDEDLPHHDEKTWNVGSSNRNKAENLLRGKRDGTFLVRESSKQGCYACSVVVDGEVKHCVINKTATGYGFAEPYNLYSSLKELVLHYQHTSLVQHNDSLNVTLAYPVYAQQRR
UniProt O35607, residues 27-1038: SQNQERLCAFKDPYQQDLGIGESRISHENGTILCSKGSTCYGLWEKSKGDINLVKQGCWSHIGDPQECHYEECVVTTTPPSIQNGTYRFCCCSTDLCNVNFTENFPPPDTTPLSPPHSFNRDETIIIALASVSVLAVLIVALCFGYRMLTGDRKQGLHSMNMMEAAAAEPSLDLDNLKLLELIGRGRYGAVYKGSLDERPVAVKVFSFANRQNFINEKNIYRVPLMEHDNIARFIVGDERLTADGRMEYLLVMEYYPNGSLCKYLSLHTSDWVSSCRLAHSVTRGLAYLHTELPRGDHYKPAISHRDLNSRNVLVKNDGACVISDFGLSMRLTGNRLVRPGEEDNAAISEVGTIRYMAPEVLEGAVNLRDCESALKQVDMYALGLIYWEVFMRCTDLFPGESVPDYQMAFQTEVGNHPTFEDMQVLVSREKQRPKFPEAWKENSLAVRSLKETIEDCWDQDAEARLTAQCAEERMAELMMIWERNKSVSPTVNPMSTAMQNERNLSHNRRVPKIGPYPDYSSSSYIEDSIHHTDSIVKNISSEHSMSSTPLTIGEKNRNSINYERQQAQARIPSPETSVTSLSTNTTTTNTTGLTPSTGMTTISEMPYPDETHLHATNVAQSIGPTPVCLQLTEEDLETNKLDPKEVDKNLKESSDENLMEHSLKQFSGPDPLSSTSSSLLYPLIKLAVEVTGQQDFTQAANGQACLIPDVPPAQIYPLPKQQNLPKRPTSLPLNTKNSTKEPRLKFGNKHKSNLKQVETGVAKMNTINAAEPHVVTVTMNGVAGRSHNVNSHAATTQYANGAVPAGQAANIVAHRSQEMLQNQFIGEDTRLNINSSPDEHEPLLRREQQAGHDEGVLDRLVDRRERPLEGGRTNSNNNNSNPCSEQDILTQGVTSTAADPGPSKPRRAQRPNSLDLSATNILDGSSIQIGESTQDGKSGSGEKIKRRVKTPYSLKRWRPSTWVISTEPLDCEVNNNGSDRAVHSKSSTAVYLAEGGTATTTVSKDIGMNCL
HA-tagged BMP receptor type Ib (BMPRIb-HA) (P36898, residues 14-502): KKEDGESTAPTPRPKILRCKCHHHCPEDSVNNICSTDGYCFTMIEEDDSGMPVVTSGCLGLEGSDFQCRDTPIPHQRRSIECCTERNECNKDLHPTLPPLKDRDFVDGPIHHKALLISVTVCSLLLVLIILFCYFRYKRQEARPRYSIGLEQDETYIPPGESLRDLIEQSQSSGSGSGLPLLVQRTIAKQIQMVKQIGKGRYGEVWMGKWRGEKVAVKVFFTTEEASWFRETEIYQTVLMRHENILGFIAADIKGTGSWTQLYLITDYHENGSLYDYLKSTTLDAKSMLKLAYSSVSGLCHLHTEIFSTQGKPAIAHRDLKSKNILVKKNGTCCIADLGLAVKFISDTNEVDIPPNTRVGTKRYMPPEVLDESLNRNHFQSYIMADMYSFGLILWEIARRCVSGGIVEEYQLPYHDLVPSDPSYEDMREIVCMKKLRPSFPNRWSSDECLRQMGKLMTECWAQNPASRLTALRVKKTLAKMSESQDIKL
UniProt P42337: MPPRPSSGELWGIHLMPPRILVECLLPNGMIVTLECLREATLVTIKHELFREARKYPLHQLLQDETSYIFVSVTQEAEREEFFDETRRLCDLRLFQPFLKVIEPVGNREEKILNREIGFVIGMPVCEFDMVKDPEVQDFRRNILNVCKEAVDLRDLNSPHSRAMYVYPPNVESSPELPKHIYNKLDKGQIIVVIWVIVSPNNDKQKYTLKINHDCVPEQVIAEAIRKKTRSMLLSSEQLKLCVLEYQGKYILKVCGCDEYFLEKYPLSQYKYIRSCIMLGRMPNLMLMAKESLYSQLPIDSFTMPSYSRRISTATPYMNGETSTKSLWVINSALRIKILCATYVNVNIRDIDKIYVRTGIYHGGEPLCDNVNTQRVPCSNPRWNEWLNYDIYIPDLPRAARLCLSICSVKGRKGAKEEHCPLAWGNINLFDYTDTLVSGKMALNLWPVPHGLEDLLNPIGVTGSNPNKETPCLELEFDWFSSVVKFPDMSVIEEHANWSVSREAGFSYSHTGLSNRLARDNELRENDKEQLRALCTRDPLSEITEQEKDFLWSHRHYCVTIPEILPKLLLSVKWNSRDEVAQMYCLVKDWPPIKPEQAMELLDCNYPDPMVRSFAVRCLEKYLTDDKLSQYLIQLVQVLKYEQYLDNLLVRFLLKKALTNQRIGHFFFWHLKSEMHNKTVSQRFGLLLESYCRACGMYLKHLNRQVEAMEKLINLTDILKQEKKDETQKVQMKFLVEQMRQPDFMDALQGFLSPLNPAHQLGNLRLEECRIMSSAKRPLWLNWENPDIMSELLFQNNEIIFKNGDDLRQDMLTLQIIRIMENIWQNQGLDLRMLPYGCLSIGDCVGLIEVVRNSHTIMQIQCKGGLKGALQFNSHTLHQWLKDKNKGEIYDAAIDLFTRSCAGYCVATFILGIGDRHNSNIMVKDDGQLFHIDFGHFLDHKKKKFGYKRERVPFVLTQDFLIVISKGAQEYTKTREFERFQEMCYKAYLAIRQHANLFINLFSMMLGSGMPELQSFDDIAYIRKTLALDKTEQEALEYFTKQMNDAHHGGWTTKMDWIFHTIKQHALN
HA-tagged BMP receptor type II long form (BMPRII-LF-HA), wild type (Q13873, residues 27-1038): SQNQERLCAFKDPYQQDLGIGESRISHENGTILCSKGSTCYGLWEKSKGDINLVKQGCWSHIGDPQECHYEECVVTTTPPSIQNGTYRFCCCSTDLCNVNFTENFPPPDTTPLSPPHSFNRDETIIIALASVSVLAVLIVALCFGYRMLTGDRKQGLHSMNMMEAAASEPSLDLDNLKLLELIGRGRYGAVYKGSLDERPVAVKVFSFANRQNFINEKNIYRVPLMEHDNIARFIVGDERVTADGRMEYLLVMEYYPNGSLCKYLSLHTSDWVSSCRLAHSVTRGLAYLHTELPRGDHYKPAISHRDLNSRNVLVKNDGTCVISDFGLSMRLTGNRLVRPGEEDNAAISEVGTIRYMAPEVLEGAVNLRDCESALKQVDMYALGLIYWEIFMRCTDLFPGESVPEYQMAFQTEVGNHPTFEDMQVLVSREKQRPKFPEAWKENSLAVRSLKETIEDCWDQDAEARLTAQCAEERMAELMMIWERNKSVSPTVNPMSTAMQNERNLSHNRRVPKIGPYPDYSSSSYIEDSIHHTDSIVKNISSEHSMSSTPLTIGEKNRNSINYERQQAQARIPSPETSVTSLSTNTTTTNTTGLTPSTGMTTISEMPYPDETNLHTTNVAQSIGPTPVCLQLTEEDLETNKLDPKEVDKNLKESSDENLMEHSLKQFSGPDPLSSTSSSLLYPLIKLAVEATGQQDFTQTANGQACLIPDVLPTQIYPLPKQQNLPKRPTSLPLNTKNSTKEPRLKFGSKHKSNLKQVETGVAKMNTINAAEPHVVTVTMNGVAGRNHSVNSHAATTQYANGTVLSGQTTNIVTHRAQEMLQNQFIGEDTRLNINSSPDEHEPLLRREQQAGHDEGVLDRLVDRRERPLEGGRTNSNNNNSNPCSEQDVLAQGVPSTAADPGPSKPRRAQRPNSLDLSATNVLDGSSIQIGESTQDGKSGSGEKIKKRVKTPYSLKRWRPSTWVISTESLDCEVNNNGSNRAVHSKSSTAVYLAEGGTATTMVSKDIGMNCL
BMP receptor type II short form (BMPRII-SF), overexpressed (Q13873-2, form named): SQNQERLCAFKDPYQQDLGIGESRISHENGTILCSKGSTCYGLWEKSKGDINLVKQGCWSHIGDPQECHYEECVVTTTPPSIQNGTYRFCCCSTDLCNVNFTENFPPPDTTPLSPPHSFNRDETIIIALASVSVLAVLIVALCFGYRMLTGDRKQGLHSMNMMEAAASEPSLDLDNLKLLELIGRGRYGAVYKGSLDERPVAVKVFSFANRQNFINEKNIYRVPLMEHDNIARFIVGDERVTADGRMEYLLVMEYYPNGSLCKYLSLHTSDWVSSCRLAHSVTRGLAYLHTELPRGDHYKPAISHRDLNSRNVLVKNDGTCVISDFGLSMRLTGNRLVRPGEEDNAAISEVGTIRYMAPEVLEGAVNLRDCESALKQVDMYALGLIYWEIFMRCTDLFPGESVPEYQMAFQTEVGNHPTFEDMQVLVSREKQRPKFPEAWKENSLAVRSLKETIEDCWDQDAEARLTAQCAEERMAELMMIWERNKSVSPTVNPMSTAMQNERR
HA-tagged kinase-dead BMPRII long form K230R (BMPRII-LF-K230R) (Q13873, form named): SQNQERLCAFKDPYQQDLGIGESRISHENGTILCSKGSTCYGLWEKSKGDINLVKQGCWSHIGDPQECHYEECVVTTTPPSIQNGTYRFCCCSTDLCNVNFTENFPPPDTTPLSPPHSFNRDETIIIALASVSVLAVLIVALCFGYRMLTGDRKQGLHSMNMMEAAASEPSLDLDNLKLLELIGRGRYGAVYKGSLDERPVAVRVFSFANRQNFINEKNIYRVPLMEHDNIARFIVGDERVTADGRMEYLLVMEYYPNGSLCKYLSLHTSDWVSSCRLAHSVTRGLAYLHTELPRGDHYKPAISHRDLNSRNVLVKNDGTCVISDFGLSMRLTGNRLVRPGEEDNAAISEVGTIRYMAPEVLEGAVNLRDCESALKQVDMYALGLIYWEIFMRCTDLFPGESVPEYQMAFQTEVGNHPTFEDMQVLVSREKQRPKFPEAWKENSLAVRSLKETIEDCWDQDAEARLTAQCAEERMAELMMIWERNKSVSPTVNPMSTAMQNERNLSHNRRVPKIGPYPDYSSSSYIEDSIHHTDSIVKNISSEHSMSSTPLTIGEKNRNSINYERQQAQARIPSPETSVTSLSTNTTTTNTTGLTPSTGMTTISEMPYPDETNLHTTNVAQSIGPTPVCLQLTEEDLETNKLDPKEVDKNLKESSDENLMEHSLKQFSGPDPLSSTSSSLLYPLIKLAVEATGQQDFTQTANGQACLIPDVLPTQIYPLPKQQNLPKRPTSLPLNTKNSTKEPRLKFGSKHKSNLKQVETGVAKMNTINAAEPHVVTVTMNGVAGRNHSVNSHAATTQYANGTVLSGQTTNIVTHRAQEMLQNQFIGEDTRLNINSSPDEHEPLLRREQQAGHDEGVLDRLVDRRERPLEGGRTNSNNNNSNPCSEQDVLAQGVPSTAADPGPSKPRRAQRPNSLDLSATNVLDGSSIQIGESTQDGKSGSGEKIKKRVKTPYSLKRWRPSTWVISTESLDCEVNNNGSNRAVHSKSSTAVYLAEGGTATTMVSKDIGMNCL

Tests used:
[1] = target: endogenous PI3K regulatory subunit p85α (mouse (endogenous in C2C12)) (UniProt P26450); experiment: co-IP; endogenous proteins from C2C12 cell extracts; precipitation of endogenous p55γ, p85α or p110α; modified RIPA buffer with 0.1% SDS and 0.5% Nonidet P-40; cells stimulated with 10 nM BMP2 for the indicated times (association of BMPRII increased with BMP2), in Figure 5A also insulin or …
[2] = target: endogenous PI3K regulatory subunit p55γ (mouse (endogenous in C2C12)) (UniProt Q64143); experiment: as above
[3] = target: N-terminal flag-tagged p55γ (PI3K regulatory subunit p55 gamma) (mouse) (UniProt Q64143); experiment: co-IP; proteins overexpressed in transiently transfected HEK293T cells; precipitation of p55γ (flag-tag mediated in Figure 3A), blot for BMPRII/BMPRIb; modified RIPA buffer with 0.5% SDS and 0.1% Nonidet P-40; with or without co-expressed BMPRIb-HA (co-expression facilitated the BMPRII-p55γ interaction)

Substance: endogenous BMP receptor type II long form (BMPRII-LF) (from UniProt O35607 27-1038)
- binding [1]: no binding
- binding [2]: binds

Substance: HA-tagged BMP receptor type Ib (BMPRIb-HA) (from UniProt P36898 14-502)
- binding [3]: no binding

Substance: endogenous class Ia PI3K catalytic subunit p110α (from UniProt P42337 1-1068) (enzyme)
- binding [2]: binds

Substance: kinase-dead BMP receptor type Ib K231R (BMPRIb-K231R) (from UniProt P36898 14-502)
- binding [3]: no binding

Substance: BMP receptor type II short form (BMPRII-SF), overexpressed (from UniProt Q13873-2 27-530)
- binding [3]: binds

Substance: HA-tagged BMP receptor type II long form (BMPRII-LF-HA), wild type (from UniProt Q13873 27-1038)
- binding [3]: binds

Substance: HA-tagged kinase-dead BMPRII long form K230R (BMPRII-LF-K230R) (from UniProt Q13873 27-1038) (receptor)
- binding [3]: binds
